Consider 96 compounds from PubChem BioAssay AID485344 (National Center for Advancing Translational Sciences (NCATS), 2010).

Structures are written as SMILES. About 6,900 (2%) of roughly 340,000 compounds were called active. No stated cut-off is given here; in the data, active means inhibition above about 30%; inactive means below that, where a call was filed. This is a selection; strong and weak results do not stand in their true shares. Where no call is shown, the source filed none. Some structures have more than one record in an assay (separate samples or runs), and their calls can disagree.

This experiment deals with D(2) dopamine receptor (Homo sapiens) (UniProt P14416). Kind of experiment: HTS Assay for Allosteric Antagonists of the Human D2 Dopamine Receptor: Primary Screen for Antagonists. Further: 0% is about no effect. As to conditions: HEK293 TREx D2 cells, calcium flux, dopamine EC80; at 10 µM; stronger effect = higher value. In short, it runs like this: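 Cells plated overnight at 30 C with tetracycline; no-wash calcium dye, 30–90 min RT; 10 s baseline; compound pinned; 180 s read; EC80 dopamine added; another 180 s read.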
Sequence of UniProt P14416 (P14416 whole entry, looked up): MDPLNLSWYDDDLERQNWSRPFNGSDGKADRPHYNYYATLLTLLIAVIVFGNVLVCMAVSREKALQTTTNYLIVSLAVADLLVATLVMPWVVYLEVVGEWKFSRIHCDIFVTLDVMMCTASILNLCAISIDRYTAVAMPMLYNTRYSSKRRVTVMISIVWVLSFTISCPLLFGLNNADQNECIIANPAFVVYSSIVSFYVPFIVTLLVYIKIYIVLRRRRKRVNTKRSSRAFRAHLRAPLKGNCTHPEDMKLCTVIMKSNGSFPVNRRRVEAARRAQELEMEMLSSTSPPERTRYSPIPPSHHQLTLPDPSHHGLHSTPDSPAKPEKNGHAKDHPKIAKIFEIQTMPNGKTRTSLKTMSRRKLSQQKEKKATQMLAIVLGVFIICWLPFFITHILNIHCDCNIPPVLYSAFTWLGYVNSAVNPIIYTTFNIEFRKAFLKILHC
For orientation: Calcium flux is commonly read through the fluorescence of an indicator in the cells.
The inhibition is the change of the read-out against control, counted positive when it falls. In the case of `N=c1c(S(=O)(=O)c2ccccc2)cc2c(=O)n3ccccc3nc2n1Cc1cccnc1`, the inhibition was active: 44.4%.
The same measure for `COc1cc(NC(=O)CCn2c(=O)oc3ccccc32)cc(OC)c1OC`: -5.73%; for `COC(=O)CC1Oc2ccc(F)cc2-n2cc(-c3ccc(C)cc3)nc21` (stereo unspecified): 16.7%.
As for `CCOC(=O)N1CCc2c(sc(NCc3cccc(F)c3)c2C(=O)Nc2ccc(OC)cc2)C1`, the inhibition is 11.9%.
Consider `Cc1ccc(CNc2nc3ccc(Cl)cc3n3nnnc23)cc1`, for which the inhibition is -1.39%.
As for `COc1ccc(-n2cc(-c3ccccc3)nc2SCC(=O)Nc2ccccc2C)cc1`, the inhibition was -0.789%.
Take `Cc1cc(-c2ccc(C)c(S(=O)(=O)Nc3ccccn3)c2)on1`: the inhibition was -4.13%.
Consider `COc1cc(OC)c(NS(=O)(=O)c2c(C(=O)N3CCCCCC3)c(C)n(C)c2C)cc1Cl`, for which the inhibition is -20.7%.
As to `COc1ccc(N(Cc2cccs2)C(=O)COc2cccc(C)c2C)cc1`, the inhibition amounted to 2.32%.
The same measure for `CSc1ccc(NC(=O)C2CCN(c3ncccn3)CC2)cc1`: -20.9%; for `Cc1ccc(S(=O)(=O)c2nc(-c3cccs3)oc2SCC(=O)Nc2cc(C)cc(C)c2)cc1`: -13.1%; for `COc1ccccc1OCC(=O)N(Cc1cccs1)C1CCS(=O)(=O)C1` (stereo unspecified): 14.2%.
As to `CCOC(=O)Cn1nc(C)c(NC(=O)COc2ccccc2)c1C`, the inhibition was -2.61%.
For `Cc1cccc(Cn2c(=O)n(CCCC(=O)NCc3ccccc3Cl)c(=O)c3ccccc32)c1`, the inhibition was -11%.
The same measure for `COc1ccccc1CNc1nc(-c2ccco2)nn1S(C)(=O)=O`: -21.2%.
With `COc1ccc(S(=O)(=O)NC(C)(C)C)cc1-c1nnc2c3ccccc3c(C)nn12`, the inhibition turned out to be 16.1%.
For the compound `COc1ccc(N2C(=O)CSC23C(=O)N(Cc2cccc(C(F)(F)F)c2)c2ccccc23)cc1` (stereo unspecified), the inhibition is 5.48%.
In the case of `Cc1ccc(Nc2c3c(nc4nc(-c5cccs5)nn24)CCCC3)cc1F`, the inhibition is -3.99%.
With `Cc1oc(-c2ccc(Cl)cc2)nc1CS(=O)CC(=O)NCCc1ccccc1` (stereo unspecified), the inhibition is -24.3%.
With `Cc1cccc(NC(=O)Cn2nnc(C(=O)NCc3cccs3)c2N)c1`, the inhibition is 7.53%.
Regarding `NC(=O)c1c(NC(=O)c2cc(-c3ccc(F)cc3)on2)sc2c1CCCC2`, the inhibition worked out at 16.8%.
`CCC(C(=O)Nc1ccc(C(C)C)cc1)n1nc(C)n2c(cc3cc(C)ccc32)c1=O` (stereo unspecified): the inhibition was found to be 0.929%.
Take `CN(C)c1ccc(CNC(=O)C2CCCN(S(=O)(=O)c3ccc4c(c3)CCCC(=O)N4)C2)cc1` (stereo unspecified): the inhibition stood at 5.06%.
`Cc1ccc(C)c(Cn2c(=O)cc(C(F)(F)F)c3c(C)nn(C)c32)c1`: the inhibition is -9.6%.
As for `Cc1ccccc1C(=O)NCc1nc(-c2ccc(Cl)cc2)no1`, the inhibition is -1.91%.
With `CCCCN(CC(=O)NC(C)(C)C)C(=O)C(=O)Nc1ccc2c(c1)OCCO2` the figure was active: 64.1%; with `Cc1cc(C(=O)N2CCc3ccccc32)n(-c2ccccc2)n1`, active: 37.1%.
As to `FC(F)(F)c1nnc2ccc(NCc3ccccc3)nn12`, the inhibition is active: 79.7%.
The same measure for `CCc1nnc(SCc2nc(-c3cccc(Cl)c3)oc2C)c2cc3sc(C)cc3n12`: 12.2%; for `COc1cc(OC)c(NS(=O)(=O)c2cc3c(cc2C)N(C(C)=O)CCO3)cc1Cl`: -0.0108%.
For the compound `COc1ccccc1NC(=O)CN(c1cc(C)cc(C)c1)S(=O)(=O)c1c(C)[nH]c(=O)[nH]c1=O`, the inhibition was -20%.
As for `c1ccc(Cn2cc(CNc3ccccc3)nn2)cc1`, the inhibition was active: 41.8%.
For `CCOC(=O)c1ccc(NC2(c3ccccc3)C(=O)c3ccccc3C2=O)cc1`, the inhibition was -2.94%.
Take `Cc1ccc(-c2nnc3ccccc3c2C(=O)Nc2ccc(C)c(F)c2)cc1`: the inhibition is -0.762%.
In the case of `COc1ccccc1C(=O)Nc1nnc(S(=O)(=O)N2CCN(c3ccc(F)cc3)CC2)s1`, the inhibition was determined as 18.6%.
Regarding `CCOC(=O)c1ccc(NC(=O)c2sc3ccccc3c2Cl)cc1`, the inhibition is -7.24%.
`CCn1cc(CN2CCC(C(=O)Nc3ccc(Oc4cccnc4)cc3)CC2)cn1`: the inhibition is active: 30.9%.
Take `Cc1ccc(NC(=O)c2c(C)nc3sc(C(=O)Nc4ccc(F)cc4)c(N)c3c2-c2ccc(Cl)cc2)c(C)c1`: the inhibition stood at 7.11%.
On to `COc1cccc(NC(=O)CCc2nnc3n(Cc4ccccc4Cl)c(=O)c4ccccc4n23)c1`, for which the inhibition came out at 11.8%.
For the compound `O=C1CC(c2nnc(Cc3c(F)cccc3Cl)o2)CN1c1ccccc1` (stereo unspecified), the inhibition came to 1.43%.
Take `Cc1ccc(Nc2c(-c3ccc(N4CCOCC4)cc3)nc3cccc(C)n23)cc1`: the inhibition was -2.93%.
With `O=C(NC(=S)NCc1ccccc1)c1ccccc1` the figure was active: 35.8%.
With `CCc1ccc(NC(=O)C2CCCN(S(=O)(=O)c3cccc4nsnc34)C2)cc1` (stereo unspecified) the figure was -6.73%.
For `COc1ccc(Nc2nnc(-c3ccc(C)c(S(=O)(=O)NCc4nc5ccccc5[nH]4)c3)c3ccccc23)cc1`, the inhibition was determined as 8.1%.
The same measure for `CCC(C)Sc1oc(-c2ccco2)nc1S(=O)(=O)c1ccc(Cl)cc1` (stereo unspecified): 8.64%; for `Cc1ccc(NC(=O)Cn2nnc(C(=O)NCCc3ccccc3)c2N)cc1`: -5.71%; for `O=C(NCc1ccc(Cl)cc1)c1ccc2c(c1)NC(=O)C(CS(=O)(=O)Cc1ccc(F)cc1Cl)N2` (stereo unspecified): 8.61%.
As to `Clc1ccc(-c2csc(-c3nc(-c4ccc(Br)s4)cs3)n2)cc1`, the inhibition was -25.3%.
As to `Cc1cc(C)c(Cn2c3ccccc3c3cnn(CC(=O)NCCC4=CCCCC4)c(=O)c32)c(C)c1`, the inhibition is -12.7%.
Turning to `CCOc1ccccc1C(=O)NC1(C(F)(F)F)C(=O)Nc2c1c(=O)[nH]c(=O)n2-c1ccccc1` (stereo unspecified), the inhibition is 3.86%.
Turning to `CCCNC(=O)CSC1=N/C(=C/c2ccc(F)cc2)C(=O)N1CC`, the inhibition is active: 35%.
The same measure for `Cc1ccc(S(=O)(=O)c2cn(Cc3ccccc3)c3cc(N4CCCC4)c(F)cc3c2=O)cc1`: 14.8%; for `Cc1ccc(-c2nc(NC(=O)CSc3ccc4ccccc4n3)ns2)cc1`: -11.4%.
With `Cc1ccccc1NC(=O)c1nc(S(C)(=O)=O)ncc1N(Cc1ccco1)Cc1sccc1C`, the inhibition is 9.66%.
Turning to `Cc1ccccc1OCC(=O)Nc1ccc(C(=O)OCc2cc(=O)n3ccsc3n2)cc1`, the inhibition is -4.27%.
Take `CCN(C(=O)CCc1nc(-c2ccc(C)cc2)no1)c1cccc(Cl)c1`: the inhibition is 6.77%.
With `COC(=O)c1cc2sccc2n1CC(=O)Nc1ccc(C)cc1C`, the inhibition is -2.32%.
In the case of `Cc1ccc(C(C)C)c(OCc2nn(CC(=O)c3ccc(Cl)cc3)c3[n+]2CCCCC3)c1`, the inhibition was active: 33%.
`CC1Cc2cc(S(=O)(=O)NCc3ccccc3)ccc2N1C(=O)C1CCC1` (stereo unspecified): the inhibition came to 16.3%.
With `COc1ccc(NC(=O)N2CCN(S(C)(=O)=O)CC2)cc1` the figure was active: 34.1%.
For the compound `O=C(NCc1ccccc1)c1nc(-c2ccc(Cl)cc2)n2c1CCCCC2`, the inhibition was -9.26%.
With `CC[C@H](C)C(=O)O[C@H]1CCC=C2C=C[C@H](C)[C@H](CC[C@@H]3C[C@@H](O)CC(=O)O3)[C@H]21`, the inhibition is active: 38.1%.
In the case of `CCOC(=O)c1cc(OC(=O)c2cc(OC)cc(OC)c2)n(-c2ccccc2)n1`, the inhibition is 20.3%.
The same measure for `Clc1ccc2nc(-c3cccs3)c(Nc3ccc4c(c3)OCCO4)n2c1`: 9.34%; for `CCOC(=O)c1c(NC(=O)CSc2cn(CCNC(=O)c3ccc(OCC)cc3)c3ccccc23)sc2c1CCC2`: -8.35%; for `Cc1ccc(Cl)cc1NC(=O)Cn1c(SCC(=O)NCc2ccccc2)nc2ccccc21`: -6.12%.
As for `CCc1nonc1NC(=O)c1oc2ccc(Cl)cc2c1C`, the inhibition was -2.59%.
Regarding `COC(=O)c1cc2oc3ccccc3c2n1CC(=O)Nc1ccc(F)c(Cl)c1`, the inhibition came to 16.4%.
As for `COc1cccc(CC(=O)Nc2ccc3nc(Nc4cccc(C(F)(F)F)c4)cc(C)c3c2)c1`, the inhibition is -14.9%.
Consider `CCOc1ccc(CCNC(=O)c2nn(C)c3c2CSc2ccc(C)cc2-3)cc1OCC`, for which the inhibition is -2.62%.
For `Cc1cccc(Cn2c(CN3CCCC(C)C3)nc3c2c(=O)n(C)c(=O)n3C)c1` (stereo unspecified), the inhibition was -22.7%.
With `CCOC(=O)c1ccc(NC(=S)N(CCCN2CCCC(C)C2)Cc2cccs2)cc1` (stereo unspecified), the inhibition was active: 39.6%.
Regarding `Cc1ccccc1NC(=O)CCn1nc(-c2ccc(Cl)cc2)c2ccccc2c1=O`, the inhibition worked out at 13.6%.
Turning to `COc1cccc(CNC(=O)c2cc(=O)[nH]c3ccc(S(=O)(=O)N4CCCC4)cc23)c1`, the inhibition is -8.13%.
Turning to `COc1ccc(CNC(=O)CC2Oc3ccc(C)cc3NC2=O)cc1` (stereo unspecified), the inhibition was 7.04%.
On to `COc1ccc(-c2csc3nc(-c4ccc(C)cc4)oc(=O)c23)cc1OC`, for which the inhibition worked out at 6.79%.
For the compound `O=c1c2sc3ccccc3c2n(Cc2ccc(Cl)cc2)c(=O)n1Cc1ccco1`, the inhibition is -2.41%.
`Cc1ccc(NC(=O)CCc2nc3cccnc3n2-c2ccccc2)cc1Cl`: the inhibition is -2.39%.
Turning to `Cc1cccc(NC(=O)Cn2cnc3sc(C)c(S(=O)(=O)N4CCC(C)CC4)c3c2=O)n1`, the inhibition is active: 31.6%.
Turning to `Cc1ccc(N(Cc2cccs2)C(=O)c2ccccc2[N+](=O)[O-])cc1`, the inhibition was -3.56%.
For the compound `COc1ccc(CCN(C)CCCC(C#N)(c2cc(OC)c(OC)c(OC)c2)C(C)C)cc1OC` (stereo unspecified), the inhibition was active: 45.3%.
With `CCC(C)NC(=O)Cn1c(=O)c2cccn2c2ccc(F)cc21` (stereo unspecified) the figure was -0.545%; with `Cc1ccc(CN2CCN(c3cccc4[nH]ccc34)CC2)cc1`, active: 72.3%; with `CCOc1ccccc1C(=O)NC(C(=O)Nc1cccc(S(N)(=O)=O)c1)C(C)C` (stereo unspecified), active: 33.2%.
`Cc1ccccc1Cn1c(C)c(CNCCCc2ccccc2)c(C(=O)O)c1C`: the inhibition amounted to 0.267%.
Take `Cc1ccc2[nH]c3c(c2c1)CCN(C)C3`: the inhibition was active: 33.7%.
In the case of `Cc1ccccc1Nc1c(-c2c[nH]c3ccccc23)nc2cccc(C)n12`, the inhibition was 2.07%.
For `COc1ccc(C2C=C(c3ccc(Cl)cc3)Nc3nc(NC(=O)CCC(=O)O)nn32)cc1` (stereo unspecified), the inhibition was -3.63%.
`Brc1cccc(-c2nnn3c2nc(N2CCCCC2)c2ccccc23)c1`: the inhibition amounted to 8.25%.
With `CCN(CC(=O)Nc1c(F)cccc1F)C(=O)Cc1csc(-c2ccccc2)n1` the figure was active: 35.3%.
Turning to `Cc1ccc2nc3c(c(Nc4ccc(C)c(C)c4)c2c1)CCC3`, the inhibition came to 8.31%.
Consider `O=C(CNS(=O)(=O)c1cccs1)N1CCN(c2ccccc2F)CC1`, for which the inhibition turned out to be 6.97%.
For `Cc1ccc(F)cc1S(=O)(=O)N1CCC(c2nc3ccccc3s2)CC1`, the inhibition is -10.7%.
Take `CCCn1c(=O)c2sccc2n2c(CCCC(=O)NC3CCCCC3)nnc12`: the inhibition was found to be 4.24%.
The same measure for `Fc1ccccc1N1CCN(c2ncnc3c2nc2n3CCCC2)CC1`: 2.71%.
Consider `CN(C)c1ccc(NC(=O)Cn2cc(S(=O)(=O)Cc3ccccc3Cl)c3ccccc32)cc1`, for which the inhibition was determined as 3.9%.
